Some of the results follow.
Legend:
Assay in all cases: glycan array binding signal (z-score within array); higher = stronger binding
Details in all cases: glycan notation: IUPAC condensed, linker removed
[1] = target: Neu5Ac(a2-3)Gal(b1-4)GlcNAc(b1-3)[Neu5Ac(a2-3)Gal(b1-4)GlcNAc(b1-6)]GalNAc
In short: (§1)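 From the Consortium for Functional Glycomics database, 3228 arrays were curated, keeping only those whose protein sequence was available. Binding is given as a within-array Z-score averaged across arrays sharing a protein sequence and across linkers. Negative Z-scores can be read as non-binding.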

[2] = target: Neu5Ac(a2-3)Gal(b1-4)GlcNAc(b1-6)GalNAc
In short: as §1

[3] = target: Neu5Ac(a2-3)Gal(b1-4)GlcNAc(b1-6)[Gal(b1-3)]GalNAc
In short: as §1

[4] = target: Neu5Ac(a2-3)Gal(b1-4)GlcNAc(b1-6)[Neu5Ac(a2-3)Gal(b1-3)]GalNAc
In short: as §1

[5] = target: Neu5Ac(a2-3)Gal(b1-4)GlcNAc6S
In short: as §1

[6] = target: Neu5Ac(a2-3)Gal(b1-4)[Fuc(a1-3)]GlcNAc
In short: as §1

[7] = target: Neu5Ac(a2-3)Gal(b1-4)[Fuc(a1-3)]GlcNAc(b1-2)Man
In short: as §1

[8] = target: Neu5Ac(a2-3)Gal(b1-4)[Fuc(a1-3)]GlcNAc(b1-3)Gal
In short: as §1

[9] = target: Neu5Ac(a2-3)Gal(b1-4)[Fuc(a1-3)]GlcNAc(b1-3)Gal(b1-4)GlcNAc
In short: as §1

[10] = target: Neu5Ac(a2-3)Gal(b1-4)[Fuc(a1-3)]GlcNAc(b1-3)Gal(b1-4)[Fuc(a1-3)]GlcNAc(b1-3)Gal(b1-4)[Fuc(a1-3)]GlcNAc
In short: as §1

[11] = target: Neu5Ac(a2-3)Gal(b1-4)[Fuc(a1-3)]GlcNAc(b1-3)GalNAc
In short: as §1

[12] = target: Neu5Ac(a2-3)Gal(b1-4)[Fuc(a1-3)]GlcNAc(b1-6)[Gal(b1-3)]GalNAc
In short: as §1

[13] = target: Neu5Ac(a2-3)Gal(b1-4)[Fuc(a1-3)]GlcNAc(b1-6)[Neu5Ac(a2-3)Gal(b1-3)]GalNAc
In short: as §1

[14] = target: Neu5Ac(a2-3)Gal(b1-4)[Fuc(a1-3)]GlcNAc6S
In short: as §1

[15] = target: Neu5Ac(a2-3)Gal6S(b1-4)GlcNAc
In short: as §1

[16] = target: Neu5Ac(a2-3)Gal6S(b1-4)[Fuc(a1-3)]GlcNAc
In short: as §1

[17] = target: Neu5Ac(a2-3)GalNAc
In short: as §1

[18] = target: Neu5Ac(a2-3)GalNAc(b1-4)GlcNAc
In short: as §1

[19] = target: Neu5Ac(a2-3)[GalNAc(b1-4)]Gal(b1-4)Glc
In short: as §1

[20] = target: Neu5Ac(a2-3)[GalNAc(b1-4)]Gal(b1-4)GlcNAc
In short: as §1

[21] = target: Neu5Ac(a2-3)[GalNAc(b1-4)]Gal(b1-4)GlcNAc(b1-3)GalNAc
In short: as §1

[22] = target: Neu5Ac(a2-3)[Neu5Ac(a2-6)]GalNAc
In short: as §1

[23] = target: Neu5Ac(a2-6)Gal
In short: as §1

[24] = target: Neu5Ac(a2-6)Gal(b1-3)GlcNAc(b1-3)[Gal(b1-4)GlcNAc(b1-6)]Gal(b1-4)Glc
In short: as §1

[25] = target: Neu5Ac(a2-6)Gal(b1-4)Glc
In short: as §1

[26] = target: Neu5Ac(a2-6)Gal(b1-4)GlcNAc
In short: as §1

[27] = target: Neu5Ac(a2-6)Gal(b1-4)GlcNAc(b1-2)Man
In short: as §1

[28] = target: Neu5Ac(a2-6)Gal(b1-4)GlcNAc(b1-2)Man(a1-3)Man(b1-4)GlcNAc(b1-4)GlcNAc
In short: as §1

[29] = target: Neu5Ac(a2-6)Gal(b1-4)GlcNAc(b1-2)Man(a1-3)[Gal(b1-4)GlcNAc(b1-2)Man(a1-6)]Man(b1-4)GlcNAc(b1-4)GlcNAc
In short: as §1

[30] = target: Neu5Ac(a2-6)Gal(b1-4)GlcNAc(b1-2)Man(a1-3)[GlcNAc(b1-2)Man(a1-6)]Man(b1-4)GlcNAc(b1-4)GlcNAc
In short: as §1

[31] = target: Neu5Ac(a2-6)Gal(b1-4)GlcNAc(b1-2)Man(a1-3)[GlcNAc(b1-4)][Neu5Ac(a2-6)Gal(b1-4)GlcNAc(b1-2)Man(a1-6)]Man(b1-4)GlcNAc(b1-4)GlcNAc
In short: as §1

B1: DC-ASGPR S+GEE (Homo sapiens) (protein)
chain: MTRTYENFQYLENKVKVQGFKNGPLPLQSLLQRLRSGPCHLLLSLGLGLLLLVIICVVGFQNSKFQRDLVTLRTDFSNFTSNTVAEIQALTSQGSSLEETIASLKAEVEGFKQERQAVHSEMLLRVQQLVQDLKKLTCQVATINNNGEEASTEGTCCPVNWVEHQDSCYWFSHSGMSWAEAEKYCQLKNAHLVVINSREEQNFVQKYLGSAYTWMGLSDPEGAWKWVDGTDYATGFQNWKPGQPDDWQGHGLGGGEDCAHFHPDGRWNDDVCQRPYHWVCEAGLGQTSQESH
[1]
  glycan array binding signal (z-score): -0.482
[2]
  glycan array binding signal (z-score): 4.38
[3]
  glycan array binding signal (z-score): -0.352
[4]
  glycan array binding signal (z-score): -0.271
[5]
  glycan array binding signal (z-score): -0.333
[6]
  glycan array binding signal (z-score): -0.32
[7]
  glycan array binding signal (z-score): -0.291
[8]
  glycan array binding signal (z-score): -0.389
[9]
  glycan array binding signal (z-score): -0.326
[10]
  glycan array binding signal (z-score): -0.291
[11]
  glycan array binding signal (z-score): -0.143
[12]
  glycan array binding signal (z-score): -0.338
[13]
  glycan array binding signal (z-score): -0.265
[14]
  glycan array binding signal (z-score): -0.352
[15]
  glycan array binding signal (z-score): -0.32
[16]
  glycan array binding signal (z-score): -0.314
[17]
  glycan array binding signal (z-score): 0.029
[18]
  glycan array binding signal (z-score): -0.206
[19]
  glycan array binding signal (z-score): 1.02
[20]
  glycan array binding signal (z-score): 0.566
[21]
  glycan array binding signal (z-score): 0.224
[22]
  glycan array binding signal (z-score): -0.339
[23]
  glycan array binding signal (z-score): -0.325
[24]
  glycan array binding signal (z-score): -0.355
[25]
  glycan array binding signal (z-score): -0.322
[26]
  glycan array binding signal (z-score): -0.313
[27]
  glycan array binding signal (z-score): -0.319
[28]
  glycan array binding signal (z-score): -0.345
[29]
  glycan array binding signal (z-score): -0.301
[30]
  glycan array binding signal (z-score): -0.263
[31]
  glycan array binding signal (z-score): -0.325
